For 23 compounds, activation results are on record in PubChem BioAssay AID1346428 (National Center for Advancing Translational Sciences (NCATS), 2018).

Hit rate of the full screen: of about 48,000 compounds, about 1,200 (2.5%) were called active. Another 2% or so got no clear call; they are omitted.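 Rule for the calls: active = activation of at least 60% and not above a set upper limit (about 1 call in 100 departs from these limits); inconclusive = activation of 40% to 60%, or above that upper limit; inactive = activation under 40%.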 Some of the results follow.

This assay has as its target Probable G-protein coupled receptor 32 (Homo sapiens) (UniProt O75388). As to the kind of experiment: qHTS for Agonists of Human Resolvin D1 Receptor DRV1. Note: 0% is about no effect. To be noted: CHO-K1 GPR32 beta-arrestin PathHunter luminescence, 90 min; at 76.9 µM; stronger effect = higher value; zero percent set by DMSO-only wells. In a few lines: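 GPR32 activation in stably transfected CHO-K1 cells, detected as beta-arrestin recruitment by enzyme-fragment complementation. Compound exposure: 90 min, 37 °C.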
UniProt O75388, sequence (O75388 whole entry, looked up, the tested form may be a part): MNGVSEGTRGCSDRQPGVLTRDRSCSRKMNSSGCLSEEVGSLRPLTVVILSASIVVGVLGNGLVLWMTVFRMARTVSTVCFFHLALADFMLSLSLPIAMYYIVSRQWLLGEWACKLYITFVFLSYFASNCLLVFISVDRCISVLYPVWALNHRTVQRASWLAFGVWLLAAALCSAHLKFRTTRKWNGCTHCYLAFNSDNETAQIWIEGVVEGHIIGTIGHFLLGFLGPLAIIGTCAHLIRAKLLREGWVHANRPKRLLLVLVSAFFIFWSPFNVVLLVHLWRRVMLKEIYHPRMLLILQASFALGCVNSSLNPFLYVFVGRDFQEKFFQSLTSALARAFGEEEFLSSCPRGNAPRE
Background: Quantitative high-throughput screening tests each substance at several concentrations.
Consider `CCc1cccc(NS(=O)(=O)c2cc(-c3cnc(C)o3)ccc2OC)c1`, for which the activation was inactive: 5.49%.
`CCOC(=O)Cn1c(=O)n(CC2CCCO2)c2nc(-c3c(F)cccc3Cl)nc(C(N)=O)c21` (stereo not drawn): the activation was inactive: -20.3%.
As for `CCn1c(=O)c2sccc2n2c(CCCC(=O)Nc3ccc(OC)c(OC)c3)nnc12`, the figure is inactive: -7.24%; as for `COc1ccc(C(=O)Nc2nc3n(n2)C(c2ccc(F)cc2)C=C(c2ccc(Cl)cc2)N3)cc1` (stereo not drawn), inactive: 12.5%.
In the case of `CCOC(=O)c1ccc(NC(=O)c2cc3c([nH]c2=O)CC(c2ccccc2)CC3=O)cc1` (stereo not drawn), the activation is inactive: 0.63%.
As for `N#C/C(=C1\SCC(c2ccccc2Cl)S1)n1ccnc1` (stereo not drawn), the figure is inactive: 42.2%; as for `Cc1cccc(NC(=O)Cn2cc(S(=O)(=O)Cc3ccccc3Cl)c3ccccc32)c1`, inactive: 4.47%; as for `COc1cccc(-c2n[nH]c3c2C(c2ccccn2)N(C)C3=O)c1` (stereo not drawn), inactive: -22.1%.
`O=C(CC1N=C2c3ccccc3N=C(SCC(=O)Nc3ccc(F)cc3)N2C1=O)NCc1ccc2c(c1)OCO2` (stereo not drawn): the activation was inactive: -20.7%.
To `CCCCC1CCC(CCCC(C)CCC(=O)O)CC1` (stereo not drawn) belongs inactive: -7.39%; to `COc1ccc(-n2cc(-c3ccc4c(c3)OCO4)n(CC(=O)Nc3cccc(C)c3)c2=O)cc1`, inactive: -20.3%.
To `CSc1ncc(Cl)c(C(=O)N(Cc2ccc(C(C)C)cc2)C2CCS(=O)(=O)C2)n1` (stereo not drawn) belongs inactive: -20.5%; to `Cc1ccccc1Cn1c(SCc2ccc(C(=O)NCCc3ccccc3)cc2)nc2ccncc21`, inactive: -9.82%; to `Cc1cc(C)n(C(C)CC(=O)Nc2ccc(C)c(F)c2)n1` (stereo not drawn), inactive: -8.16%.
As for `Cc1ccccc1CNC(=O)c1ccc(CN2CC(=O)N3CCCCC3C2=O)cc1` (stereo not drawn), the figure is inactive: -4.41%.
Consider `CCc1nnc2c3ccccc3nc(N3CCN(c4cc(C)ccc4C)CC3)n12`, for which the activation is inactive: -5.51%.
As for `CCCN(CCC)C(=O)C1CCCN(c2ncnc3c2nc2n3CCCCC2)C1` (stereo not drawn), the figure is inactive: -22%.
As for `COc1ccc(N2CCN(S(=O)(=O)CCNC(=O)c3c(F)cccc3Cl)CC2)cc1`, the figure is inactive: -6.85%; as for `COc1ccc(CNC(=O)C(=O)Nc2cc(Cl)ccc2OC)cc1`, inactive: 4.29%; as for `Cc1ccccc1CN1C(=O)c2ccccc2S(=O)c2ccc(C(=O)NCc3ccc4c(c3)OCO4)cc21` (stereo not drawn), inactive: -14.6%.
For `COc1cccc(CNC(=O)CCC(=O)N2CC(C)Sc3ccccc32)c1` (stereo not drawn), the activation was inactive: -24%.
To `Cc1ccc(S(=O)(=O)c2nnn3c2nc(N2CCC(C(N)=O)CC2)c2cc(Cl)ccc23)cc1C` belongs inactive: -6.59%; to `Cc1ccc(NS(=O)(=O)c2c(C)nc3sc(C)cn3c2=O)c(C)c1`, inactive: -17.8%.
